Results reported in patent US12162894B2, “Structural analog of Cyclotheonellazole A, and synthetic method therefor and application method thereof” (The Second People's Hospital of Shenzhen (Shenzhen …, priority 2022, dated 2024).

Target: main protease (Mpro) of SARS-CoV-2 virus (Severe acute respiratory syndrome coronavirus 2, UniProt P0DTD1)
Test: Inhibition of main protease (Mpro) of SARS-CoV-2, fluorescence kit (BPS Bioscience 78042-2)
Details: 30 min pre-incubation at room temperature; Ex/Em=360/460 nm; slope of fluorescence; read-out: IC50, enzyme activity of the Mpro

CCC[C@@H]1NC(=O)[C@@H](NC=O)CNC(=O)[C@H](CS(=O)(=O)O)NC(=O)/C=C/c2csc(n2)[C@H](Cc2ccc(O)cc2)NC(=O)C(=O)[C@H]([C@@H](C)CC)NC1=O [TM]
pIC50: 3.89

pIC50: −log10 of the molar value.
